From the supplement of paper PMC10126150
Values marked as one replicate rest on one cluster of the flow cell; about a third of the high ones do not repeat.

System: ATP
Experiment: switch fluorescence ratio, 500 uM ATP over buffer (Cy3 cluster intensity, sum of 5 cycles each) (fold (ratio)); higher = stronger signal-on switching upon ATP binding; sequences stand for … in TCGTCGGCAGCGTCAGATGTGTATAAGAGACAGTTTTTTTTTTTTTTTTTTTTTTTTT…TC
Details: aptamer strand: ATP DNA aptamer (quencher-CACCTGGGGGAGTATTGCGGAGGAAGG + anchor), 100 nM annealed; ATP concentration: 500 uM; one replicate
Outline: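 The fluorescence ratio divides summed target-cycle Cy3 intensity by summed buffer-cycle Cy3 intensity for each cluster and is averaged per switch-domain sequence. Cy3-labelled switching-strand clusters on a modified Illumina MiSeq flow-cell were annealed to 100 nM quencher-labelled ATP aptamer, then imaged in selection buffer and again after 15 min with 500 uM ATP at 22 °C. Five such cycles were run, with NaOH stripping and re-annealing between them, and clusters outside 100-1000 RFU were excluded.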
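Further: ATP exposure 15 min at 22 °C before imaging.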

## AGAGGACCTT
  switch fluorescence ratio: 1.15

## ACGATCATGC
  switch fluorescence ratio: 1.18

## CCCCGACGGT
  switch fluorescence ratio: 1.29

## GCTAGGACTC
  switch fluorescence ratio: 1.02

## AGAGCCCCGG
  switch fluorescence ratio: 0.995

## AAAAAGCGGG
  switch fluorescence ratio: 0.948

## CCTACATGG
  switch fluorescence ratio: 0.925

## GGGTCGCTG
  switch fluorescence ratio: 0.979

## ATTGAAGAAA
  switch fluorescence ratio: 0.98

## GGGGACCACT
  switch fluorescence ratio: 0.974

## ATACATATAT
  switch fluorescence ratio: 1.01

## AAACGGGAAT
  switch fluorescence ratio: 1.02

## GGAGTAGGAG
  switch fluorescence ratio: 0.983

## TTCCGTACTG
  switch fluorescence ratio: 1.01

## TGGTCCTCGA
  switch fluorescence ratio: 0.963

## ACAAGGTCTG
  switch fluorescence ratio: 0.982

## ACCGACAGGC
  switch fluorescence ratio: 1.03

## AGGGTCATTA
  switch fluorescence ratio: 1.04

## CGTCTTTGT
  switch fluorescence ratio: 0.994

## GATTAACCCC
  switch fluorescence ratio: 1.23

## TAATTGGCCT
  switch fluorescence ratio: 1.02

## GGTCCTCCTT
  switch fluorescence ratio: 1.04

## GAGGTATTCT
  switch fluorescence ratio: 1.02

## CTGGATTCGC
  switch fluorescence ratio: 1.22

## TTGTAATGT
  switch fluorescence ratio: 1.02

## GGCCGCAGG
  switch fluorescence ratio: 1.21

## CGAGTTTGCA
  switch fluorescence ratio: 1

## ACGATAGTCT
  switch fluorescence ratio: 0.956

## GAGGCCGTC
  switch fluorescence ratio: 1.03

## TCTTTTCCGT
  switch fluorescence ratio: 1.01

## CAGCGTCATG
  switch fluorescence ratio: 1.02

## GAATTTCAGC
  switch fluorescence ratio: 1.03

## TAGGAAGGTC
  switch fluorescence ratio: 1.03

## AAGAATGAT
  switch fluorescence ratio: 0.926

## GTTCTAGCGT
  switch fluorescence ratio: 0.95

## TTTCCTGATT
  switch fluorescence ratio: 1.02

## AAGGCTTATG
  switch fluorescence ratio: 0.993

## GTTGGATCGG
  switch fluorescence ratio: 0.986

## AACATGTTCG
  switch fluorescence ratio: 0.916

## TAGTTGCTTC
  switch fluorescence ratio: 0.976

## TTGAACCACT
  switch fluorescence ratio: 1.05

## AGTCTGTTGA
  switch fluorescence ratio: 1.02

## TTAACTCTCA
  switch fluorescence ratio: 0.939

## TAATAGGTAC
  switch fluorescence ratio: 0.976

## AGATTAGGTC
  switch fluorescence ratio: 1.03

## TTGCCAGTCG
  switch fluorescence ratio: 0.944

## AAGGGCGCTA
  switch fluorescence ratio: 0.987

## CTGTTGTATT
  switch fluorescence ratio: 0.991

## TAATCCCATC
  switch fluorescence ratio: 1.08

## ACTAGCGAAG
  switch fluorescence ratio: 1.02

## GGAGACCGCG
  switch fluorescence ratio: 0.967

## CAATTTAACC
  switch fluorescence ratio: 1.02

## GTTCTAAAGG
  switch fluorescence ratio: 1.01

## GCGAAATTCG
  switch fluorescence ratio: 0.982

## ACCGGGACTA
  switch fluorescence ratio: 1.05

## CCAATTGGCC
  switch fluorescence ratio: 0.964

## ATTGACGA
  switch fluorescence ratio: 1.01

## CGAGGCTATC
  switch fluorescence ratio: 3.58

## ACCGTAGGAG
  switch fluorescence ratio: 1.05

## TAGGCACTGC
  switch fluorescence ratio: 1

## GCCAGCAGTC
  switch fluorescence ratio: 1.23

## AAAGGCCAA
  switch fluorescence ratio: 0.99

## CGGTACGATG
  switch fluorescence ratio: 0.982

## AGATGGGTTG
  switch fluorescence ratio: 0.931

## AGGCTTGTGG
  switch fluorescence ratio: 1.01

## ACAGTGCGAG
  switch fluorescence ratio: 1.03

## TGTTGCCAAA
  switch fluorescence ratio: 0.981

## GTCCCTCATA
  switch fluorescence ratio: 0.966

## AATTAAGGC
  switch fluorescence ratio: 1.03

## TGAAACGCGA
  switch fluorescence ratio: 1.26

## CGCTCCGAAA
  switch fluorescence ratio: 1.72

## AAGGCAGTGG
  switch fluorescence ratio: 1.01

## AGATTAAAGG
  switch fluorescence ratio: 0.999

## AAGCTCTACA
  switch fluorescence ratio: 1.02

## CCGTTTTAAG
  switch fluorescence ratio: 0.973

## TGCAGCTTGG
  switch fluorescence ratio: 1.02

## TGGTTGTGCA
  switch fluorescence ratio: 0.971

## AGTGGCAAGA
  switch fluorescence ratio: 1.02

## AGATATTGTG
  switch fluorescence ratio: 0.983

## ATTCGCTATT
  switch fluorescence ratio: 1.01

## CTGGTACGTG
  switch fluorescence ratio: 0.958

## AACTTTTCGC
  switch fluorescence ratio: 1.04

## ATATCAGACA
  switch fluorescence ratio: 1.07

## AGTGAACATG
  switch fluorescence ratio: 1.01

## CCTCATGGGG
  switch fluorescence ratio: 1.66

## GAGTTTGCAA
  switch fluorescence ratio: 1.27

## CCATTCCGTC
  switch fluorescence ratio: 1.05

## GTGTTTAACA
  switch fluorescence ratio: 1.03

## CCTGGGCTCC
  switch fluorescence ratio: 1.22

## AACGCCGCGA
  switch fluorescence ratio: 1.42

## AGTAGATGGT
  switch fluorescence ratio: 0.991

## TTATGAGTCC
  switch fluorescence ratio: 1.05

## CCCCCAGTGT
  switch fluorescence ratio: 3.5

## TTTACGACCT
  switch fluorescence ratio: 1.45

## ATTACATGTT
  switch fluorescence ratio: 0.981

## GAAAGTAGAT
  switch fluorescence ratio: 1.03

## TGGTAATTGC
  switch fluorescence ratio: 1.02

## TGCCATGAGT
  switch fluorescence ratio: 0.971

## AAGGGATACC
  switch fluorescence ratio: 1.01

## AAGTGGTGGC
  switch fluorescence ratio: 1.05

## ATCCACGCAC
  switch fluorescence ratio: 1.99

## ATACATTTAT
  switch fluorescence ratio: 0.989

## GCGTTGAGGC
  switch fluorescence ratio: 0.951

## CCGGCACCGG
  switch fluorescence ratio: 0.991

## GAATGACACT
  switch fluorescence ratio: 1.02

## CGCAAATGGT
  switch fluorescence ratio: 1.92

## TGGACAAGTC
  switch fluorescence ratio: 0.943

## GATAGCTACG
  switch fluorescence ratio: 1.02

## TCCTTTGCTG
  switch fluorescence ratio: 1.1

## TTTAGCCAAA
  switch fluorescence ratio: 0.991

## ATGGCGTGCA
  switch fluorescence ratio: 1.02

## TATTGGAA
  switch fluorescence ratio: 0.994

## CGTTATAGGA
  switch fluorescence ratio: 0.989

## CGTGTCTGCT
  switch fluorescence ratio: 1.05

## AGTGTCGTTA
  switch fluorescence ratio: 1.02

## GGTTTTCCCG
  switch fluorescence ratio: 1

## CGTCAGTAAA
  switch fluorescence ratio: 0.972

## TAGAGTGTGG
  switch fluorescence ratio: 0.999

## ACATGTGTAT
  switch fluorescence ratio: 0.972

## GTGCGGAATG
  switch fluorescence ratio: 1.01

## CGGATGAACA
  switch fluorescence ratio: 1.01

## AGATTCACAC
  switch fluorescence ratio: 1.05

## GCATAAATGC
  switch fluorescence ratio: 1

## GGAGTATAGT
  switch fluorescence ratio: 1.05

## CCAGATAAGA
  switch fluorescence ratio: 0.962

## CTGATAGTAT
  switch fluorescence ratio: 1.02

## GTTTAAGAGT
  switch fluorescence ratio: 0.973

## GCCAGAGGTA
  switch fluorescence ratio: 1.02

## ATGGCACGAT
  switch fluorescence ratio: 1.08

## ATGTGATCCG
  switch fluorescence ratio: 1.05

## GTGAAGGG
  switch fluorescence ratio: 1.06

## GGAAGTGTC
  switch fluorescence ratio: 1.01

## TTGCTTTCTA
  switch fluorescence ratio: 0.98

## CCTGAAAGGA
  switch fluorescence ratio: 1.01

## ATTGGGTTC
  switch fluorescence ratio: 1.03

## GAAGGAGTAA
  switch fluorescence ratio: 1.04

## ATCTCGTATA
  switch fluorescence ratio: 1.06

## GCCGTTTTCT
  switch fluorescence ratio: 0.983

## GGGCACGTGA
  switch fluorescence ratio: 0.987

## GATCTTGAAT
  switch fluorescence ratio: 0.984

## CCCCTTATGA
  switch fluorescence ratio: 1

## TACAATAGAC
  switch fluorescence ratio: 1.06

## CCACTGTGAG
  switch fluorescence ratio: 1.08

## TGAATTGGCA
  switch fluorescence ratio: 1.03

## GCCGAGTTAA
  switch fluorescence ratio: 0.991

## CCAGCTATGG
  switch fluorescence ratio: 1.07

## ACTGAAGTAG
  switch fluorescence ratio: 0.989

## AACCCCCTAA
  switch fluorescence ratio: 1.11

## GCATTCGCCA
  switch fluorescence ratio: 0.999

## CATGACTAAT
  switch fluorescence ratio: 1.01

## CAAGTTGCGA
  switch fluorescence ratio: 1.04

## TGACCCGTTA
  switch fluorescence ratio: 1.01

## CTTGGGA
  switch fluorescence ratio: 1.05

## TCGGAAGTGG
  switch fluorescence ratio: 1.07

## GAGTCAGGTG
  switch fluorescence ratio: 2.3

## TATAGCCCCG
  switch fluorescence ratio: 1.06

## CGGAATATTA
  switch fluorescence ratio: 1.13
